# In the supplement of paper PMC3334620:
# In all, about 33,000 sequences were measured (“E-score (-0.5 to 0.5)”: median about -0.012, highest 2% from about 0.27 on). The list shows a part of the results.
# Target: T1, Vhr1 (UniProt P40522)
# T1 sequence: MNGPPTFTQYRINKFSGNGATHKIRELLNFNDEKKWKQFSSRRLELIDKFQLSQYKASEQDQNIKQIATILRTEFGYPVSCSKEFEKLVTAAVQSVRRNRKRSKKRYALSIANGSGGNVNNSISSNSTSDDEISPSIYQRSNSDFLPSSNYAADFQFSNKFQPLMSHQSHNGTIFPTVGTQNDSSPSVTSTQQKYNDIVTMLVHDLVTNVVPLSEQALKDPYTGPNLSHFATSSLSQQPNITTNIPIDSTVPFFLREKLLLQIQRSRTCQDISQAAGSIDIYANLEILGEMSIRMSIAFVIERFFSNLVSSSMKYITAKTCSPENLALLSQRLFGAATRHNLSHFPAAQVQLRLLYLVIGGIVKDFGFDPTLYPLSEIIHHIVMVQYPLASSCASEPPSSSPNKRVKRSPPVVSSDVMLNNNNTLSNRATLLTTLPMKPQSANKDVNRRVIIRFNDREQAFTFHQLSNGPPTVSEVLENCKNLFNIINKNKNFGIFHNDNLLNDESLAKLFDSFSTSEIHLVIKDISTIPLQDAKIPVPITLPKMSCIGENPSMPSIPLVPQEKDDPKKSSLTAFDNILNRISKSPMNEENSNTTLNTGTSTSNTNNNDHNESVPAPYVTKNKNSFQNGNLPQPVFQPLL
# Assay: PBM E-score (8-mer binding enrichment) (E-score (-0.5 to 0.5)); higher = stronger / more preferred TF binding; most listed sequences are background and not binding sites
# Conditions: protein concentration: 200 nM; construct: GST-full length
# Method in brief: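 Full-length yeast transcription factors or their DNA-binding domains, GST-tagged and expressed with PURExpress, were applied at about 100-200 nM to universal all-10-mer Agilent arrays. These arrays had been made double-stranded by primer extension on fresh or once-stripped slides. Detection used fluorescent anti-GST, normalisation used masliner, and E-scores for ungapped eight-base words pooled with reverse complements came from the Universal PBM Analysis Suite.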
row,Sequence,PBM E-score
1,CCCACTGA,0.11
2,CACAAAGG,-0.0422
3,AGCAGACA,-0.128
4,ACGGACAT,-0.0239
5,AACAGGAT,-0.0425
6,GGGCCAAC,-0.157
7,CTTTGGCA,-0.0623
8,AAAAGGAA,-0.0308
9,GACTCTGC,0.24
10,GGAATGTA,-0.0706
11,CTACCTAA,0.0659
12,AGCTGGAC,-0.17
13,AAAACTAC,-0.0122
14,CATGGCTC,0.28
15,CCCAGGGC,-0.113
16,GGTCAAAA,-0.123
17,CATGTGAA,-0.0938
18,CCAATGTC,-0.167
19,ACCGGACC,0.0247
20,GCTACTTA,-0.168
21,ACTAACGG,0.0911
22,ATGGCGTA,0.00916
23,GATAACAA,0.00571
24,GAAGACTA,0.163
25,GATGGCCC,-0.233

row,Sequence,PBM E-score
1,ACCGACCT,0.0122
2,CTCCACGC,-0.0874
3,CCCTAGTA,-0.0349
4,CATGGTGA,0.217
5,GCGTCCCC,-0.279
6,AGGGTGGC,0.173
7,CGCTCGAG,0.00335
8,GACTGAGA,0.0163
9,CTACTCCA,-0.0498
10,ACTCGCCT,0.0445
11,ACGTGTTG,-0.0244
12,CGTCCCAG,-0.203
13,GTAGGCCA,-0.0482
14,AGATGCTC,-0.0987
15,CAGTGGCG,0.14
16,CTCGCAGC,0.109
17,CGACATAA,-0.125
18,ACCGATGG,0.0908
19,AGCTATAC,-0.077
20,GAAGTTGC,-0.309
21,CCCAACGA,-0.118
22,ACCTTAGT,0.0334
23,GACGACTC,0.358
24,TAAGCAGA,-0.113
25,CCAACGCA,0.0132

row,Sequence,PBM E-score
1,GAAGTTTA,-0.251
2,AGTCGGCG,0.293
3,ACTCGTGC,0.0626
4,GAGGGATC,-0.0513
5,ATGGCTCA,0.293
6,AATGTCCT,-0.185
7,AGGTACTC,0.0984
8,ACCTGCGG,-0.0708
9,CACGATCA,0.145
10,CGCATGCC,0.13
11,AGCTGAAA,-0.158
12,AGGACTCA,0.376
13,AACCTGAC,0.128
14,AGACCTCA,0.0485
15,ACATTCAC,0.0558
16,ACGTTAAC,-0.127
17,CGAAGATA,0.214
18,ATTTGATG,0.0458
19,ACGCTCTG,0.00722
20,CCACCATA,0.176
21,GTCTCCCA,-0.0624
22,ATTGACTA,0.236
23,CCAGGGAG,0.09
24,CTCTTGGA,0.0822
25,GAAATCTC,-0.143

row,Sequence,PBM E-score
1,GGCCGTCA,-0.124
2,AGAAGGGG,-0.0634
3,CATCCTTA,0.0512
4,CCTGCGCG,0.0616
5,CCGCCTCA,0.039
6,ATCATCCG,0.182
7,TCGGCACA,-0.0219
8,ACCCGGCT,0.127
9,GACGGCCC,-0.134
10,CCGAGTTA,-0.053
11,TCTGCACA,-0.113
12,GACTGTTA,-0.0431
13,CTGTTCCA,-0.141
14,AAGCAGGC,-0.109
15,AGGATCTC,-0.119
16,AAACACTC,0.15
17,CTGCACAA,-0.0636
18,CAACCGAC,0.0964
19,AGCACACA,0.131
20,ATGGGTGC,0.0292
21,CTTCGTGA,0.121
22,AGGAGTCC,0.165
23,ACCCTGAT,0.0649
24,AACGATGG,0.0685
25,ACAGAACT,0.0499

row,Sequence,PBM E-score
1,AATCTAAA,0.00099
2,CTGATATC,-0.0297
3,AGATGAGA,0.11
4,GCAAGGAC,-0.152
5,GCACCTGA,-0.00933
6,AAGACAAC,-0.00534
7,GCGGAAAA,-0.247
8,AAGTCTAG,-0.213
9,ACCATGAC,0.307
10,ACACAGTA,0.0872
11,ATTTGACC,0.0143
12,ATGATATG,0.315
13,GTGCACGA,-0.0234
14,CAGAGAGG,-0.086
15,GGAGTGAC,0.266
16,CCTTCTCG,-0.186
17,ATCACCAC,0.143
18,ATAAGGGC,-0.0967
19,ACTTAGCG,0.045
20,AGGCAAAC,-0.00986
21,GTCGAACA,0.0448
22,ACTTTGAA,-0.298
23,CAGTAGTC,0.216
24,CACCGCTC,0.112
25,CCCCGCAG,-0.0226

row,Sequence,PBM E-score
1,CCTCTATA,-0.174
2,ACGAAAAA,-0.246
3,CCGGCACG,0.132
4,GGGTCCCA,-0.021
5,CGGCTAAG,-0.093
6,AAAGCTAG,-0.179
7,CTCGAGGC,0.153
8,CGAAGCCC,-0.0753
9,GGCCACAA,0.0566
10,AAGCAGTG,0.055
11,GAAACGGA,-0.0114
12,CGCAGGCC,-0.0947
13,CGCAGCGA,0.201
14,CGCGCGTC,0.117
15,ATTGTCGC,-0.012
16,ATATGAGG,0.178
17,AGGTGACG,-0.0476
18,AAGAGTCG,0.281
19,CCCGAGAA,-0.0627
20,ATTGAACA,-0.0184
21,ATACCCAG,0.062
22,CACGTCAC,-0.102
23,GGGATCCA,0.0018
24,CGTGTAGA,0.00263
25,CAATATAA,0.12

row,Sequence,PBM E-score
1,TGCGAGCA,0.116
2,CGTACGGC,-0.258
3,ATATAACG,0.105
4,ACTGTATG,0.132
5,CGGCCAGA,-0.0329
6,ACGGCTAG,-0.243
7,GGTGACTA,0.44
8,CCTGATGC,-0.0265
9,AACCCATT,0.0791
10,CGAAATCG,-0.0613
11,CTTAGATC,-0.106
12,CTGAACAA,0.0457
13,CCTCCGAG,0.0635
14,TGCAAGAA,-0.177
15,GAATGGAA,-0.0445
16,GGATCGGA,-0.0891
17,AAGGGTAA,0.135
18,GATGGTCA,-0.0152
19,AAATCAGG,0.0111
20,CCAGAGGA,-0.0619
21,ACACGAGG,-0.197
22,CCGAACGC,0.106
